Each structure is given as a SMILES string. Hit rate of the full screen: of about 110,000 compounds, about 230 (0.21%) showed an effect of 50% or more. The list shows a part of the results.
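Further: 30 min substrate incubation versus DMSO and 10 µM JCP410 controls.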

In the test the target is DPAP1 (Plasmodium falciparum, UniProt Q8IIJ9). Briefly: primary screen, percent inhibition; read by cleavage of a fluorogenic dipeptide substrate; higher = more effect of the substance. Also noted: species or system P. falciparum D10 trophozoite lysates; single well.
DPAP1, sequence (Q8IIJ9 whole entry, looked up): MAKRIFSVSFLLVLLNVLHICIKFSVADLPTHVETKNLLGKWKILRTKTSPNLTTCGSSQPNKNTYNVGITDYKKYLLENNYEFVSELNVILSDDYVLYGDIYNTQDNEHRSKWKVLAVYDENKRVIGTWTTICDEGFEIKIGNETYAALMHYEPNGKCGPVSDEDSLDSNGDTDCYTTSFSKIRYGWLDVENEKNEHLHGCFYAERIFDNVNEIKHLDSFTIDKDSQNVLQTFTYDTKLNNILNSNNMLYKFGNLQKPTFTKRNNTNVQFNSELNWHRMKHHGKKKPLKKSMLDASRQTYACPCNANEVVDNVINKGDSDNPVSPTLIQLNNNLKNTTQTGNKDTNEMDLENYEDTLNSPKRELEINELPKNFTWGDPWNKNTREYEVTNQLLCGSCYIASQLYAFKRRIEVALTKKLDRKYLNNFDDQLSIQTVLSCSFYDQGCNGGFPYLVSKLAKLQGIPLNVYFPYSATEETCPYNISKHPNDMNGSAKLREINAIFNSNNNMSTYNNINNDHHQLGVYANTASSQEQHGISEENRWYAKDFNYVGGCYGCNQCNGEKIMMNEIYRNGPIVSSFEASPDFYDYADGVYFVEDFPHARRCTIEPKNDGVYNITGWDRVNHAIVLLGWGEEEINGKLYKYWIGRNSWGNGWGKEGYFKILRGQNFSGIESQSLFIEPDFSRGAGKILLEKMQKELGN
For `Cc1ccc(-c2cn3c(n2)sc2cc(C(=O)NC(C)C)ccc23)c(C)c1`, the “% Inhibition @ 10 uM” value is 3.27%.
Then `CC(C)C(=O)Nc1c(C(=O)NC(C)(C)C)oc2ccccc12`, with -1.61%; and `C=CCOc1ccc(C2c3c(oc4ccccc4c3=O)C(=O)N2c2nnc(C(C)C)s2)cc1` (centres unmarked), with -1.86%; and `O=C1N=C(Nc2ccccn2)SC1Cc1cccc(Cl)c1Cl` (centres unmarked), with 2.38%.
Then `Cc1ccccc1N(CC(=O)N1CCc2ccccc2C1)S(C)(=O)=O`, with -1.89%; and `N#CSCC(=O)n1c2c(c3ccccc31)CCCC2`, with -8.95%.
Then `CCOC(=O)c1nc2ccccc2nc1O`, with 1.9%.
`CN(C)c1nc2ccccc2n2cnnc12`: the “% Inhibition @ 10 uM” value was -0.692%.
As to `CN(C)c1ccc(NC(=O)/C=C/c2ccccc2)cc1`, the “% Inhibition @ 10 uM” value is 4.26%.
In the case of `COc1cc2nc(O)c3sc4cc(OC)c(OC)cc4c3c2cc1OC`, the “% Inhibition @ 10 uM” value is -6.05%.
Then `Cc1ccc(C2(O)CSC3=C(C#N)C(c4cccc(F)c4)CC(=O)N32)cc1` (centres unmarked), with -3.52%.
Take `COc1ccc2[nH]c3c(=O)n(CC(=O)NC(C)CCc4ccccc4)c(=S)[nH]c3c2c1` (centres unmarked): the “% Inhibition @ 10 uM” value is -2.19%.
Then `CC(C)CCNC(=O)c1cc2c(Cl)ccc3c2n1CCO3`, with 4.12%; and `Cc1ccc2cnn(CC(=O)N3CC(C)CC(C)C3)c2c1` (centres unmarked), with 0.596%.
Then `CCO/C(O)=C/c1nc2ccccc2nc1O`, with 3.15%; and `Fc1c(F)c(C(F)(F)F)c(F)c(F)c1-n1nnc2ccccc21`, with -1.68%.
Then `CCCCC(=O)Nc1nnc(S(=O)(=O)N2CCC(C)CC2)s1`, with 0.00665%; and `CC(=O)c1ccc(NC(=O)CCCOc2ccc(Cl)cc2C)cc1`, with -1.44%; and `O=C(c1ccc(Cl)c(Cl)c1)N1CCN(Cc2ccccc2)CC1`, with -6.68%.
`CCN1CCN(CC(O)COc2ccc(C(C)C)cc2)CC1` (centres unmarked): the “% Inhibition @ 10 uM” value was -5.5%.
Then `O=C(NCc1cccnc1)c1cc2c(Cl)nc3ccccc3c2s1`, with 1.38%; and `CCn1c(C(=O)O)c(CNCCC2=CCCCC2)c2ccc(C)cc21`, with -5.37%.
In the case of `COc1ccc(C(=O)N(Cc2ccc(Cl)cc2)Cc2ccco2)cc1` it was -7.86%; in that of `CCOc1cccc(-c2nc3c(=O)[nH]c(=O)n(C)c3[nH]2)c1`, -3.53%.
Then `CCOC(=O)C1=CN(Cc2ccc(OC)cc2)C=C(C(=O)OCC)C1c1ccc(OCC)cc1`, with 0.219%; and `COc1ccc(OC2CCNCC2)cc1`, with -1.07%.
Consider `C/C=C(\C)CN1CCN(Cc2ccccc2)CC1`, for which the “% Inhibition @ 10 uM” value is given as -2.21%.
In the case of `CCOC(=O)Nc1nc2ccc(C)cc2s1` it was -5.15%.
In the case of `CCOC(=O)C1=C(c2ccccc2)NC(SC)=C(C#N)C1c1ccccc1Cl` (centres unmarked) it was 0.723%.

The values above are taken from paper PMC6919601, “Identification of Plasmodium dipeptidyl aminopeptidase allosteric inhibitors by high throughput screening” (PLoS ONE, 2019).
